# Test results taken from article PMC4336329 (PLoS ONE, 2015).
# About 14,000 (4.5%) of roughly 310,000 compounds showed an effect of 50% or more. Effects have a minus sign here. The list shows a part of the results.
# Biological target: human ether-à-go-go-related gene (hERG) potassium channel (human, UniProt Q12809)
# Assay: primary screen, population patch clamp on CHO cells stably expressing hERG
# 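Also: peak tail current of the secondary pulse compared with the same well before compound.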
# human ether-à-go-go-related gene (hERG) potassium channel, sequence (Q12809 whole entry, looked up): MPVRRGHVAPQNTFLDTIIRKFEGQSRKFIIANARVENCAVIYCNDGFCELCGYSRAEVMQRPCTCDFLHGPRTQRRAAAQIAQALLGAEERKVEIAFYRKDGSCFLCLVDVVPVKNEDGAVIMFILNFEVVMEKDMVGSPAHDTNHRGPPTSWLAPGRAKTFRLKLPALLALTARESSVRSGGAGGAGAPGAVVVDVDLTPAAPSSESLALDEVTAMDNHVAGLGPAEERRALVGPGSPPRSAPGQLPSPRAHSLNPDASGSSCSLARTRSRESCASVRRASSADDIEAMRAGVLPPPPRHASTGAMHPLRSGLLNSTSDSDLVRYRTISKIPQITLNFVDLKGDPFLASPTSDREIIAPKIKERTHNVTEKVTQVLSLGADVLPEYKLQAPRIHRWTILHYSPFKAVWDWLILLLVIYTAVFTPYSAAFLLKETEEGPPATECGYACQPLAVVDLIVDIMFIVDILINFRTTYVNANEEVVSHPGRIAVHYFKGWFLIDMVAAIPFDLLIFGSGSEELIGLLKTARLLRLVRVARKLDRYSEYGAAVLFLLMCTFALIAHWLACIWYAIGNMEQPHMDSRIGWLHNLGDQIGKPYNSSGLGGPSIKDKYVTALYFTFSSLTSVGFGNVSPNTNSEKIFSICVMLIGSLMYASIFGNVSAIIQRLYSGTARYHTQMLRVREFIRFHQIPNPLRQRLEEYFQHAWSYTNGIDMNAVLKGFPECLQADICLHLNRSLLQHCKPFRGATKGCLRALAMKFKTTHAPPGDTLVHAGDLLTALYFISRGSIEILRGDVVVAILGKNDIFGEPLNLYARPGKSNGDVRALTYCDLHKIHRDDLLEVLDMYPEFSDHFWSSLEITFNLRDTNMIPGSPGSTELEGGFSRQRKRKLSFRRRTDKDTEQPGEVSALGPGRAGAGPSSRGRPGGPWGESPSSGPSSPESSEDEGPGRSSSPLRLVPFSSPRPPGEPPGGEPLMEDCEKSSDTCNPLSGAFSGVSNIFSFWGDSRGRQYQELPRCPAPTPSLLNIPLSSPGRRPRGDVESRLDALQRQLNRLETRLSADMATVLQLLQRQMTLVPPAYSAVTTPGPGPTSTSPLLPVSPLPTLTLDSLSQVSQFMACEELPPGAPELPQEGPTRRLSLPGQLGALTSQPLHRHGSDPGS
row,Structure (SMILES),"hERG current change (%, negative = inhibition) at 10uM [%]"
1,CCC(=O)N1c2ccc(S(=O)(=O)N3CCCC3)cc2CC1C (centres unmarked),17.4
2,CCOC(=O)CSc1nnc(-c2ccccc2NC(=O)c2ccccc2)o1,12.2
3,COc1cc(/C=N/S(=O)(=O)c2ccccc2)cc(OC)c1O,5.7
4,COc1ccc(CCNC(=O)c2ccnc(C(C)(C)C)c2)cc1OC,-8.22
5,CN1CCN(c2ccccc2NC(=O)c2sc3ccccc3c2Cl)CC1,12
6,O=C(Oc1cc(=O)oc2ccccc12)c1cccnc1Cl,22.1
7,CC1=NN(c2ccc([N+](=O)[O-])cc2)C(c2ccccc2)C1 (centres unmarked),4.35
8,CCc1ccc(/C=C\C(=O)N2CCc3ccccc3C2)cc1,14.6
9,O=C(c1cc(-c2ccccc2)nc2ccccc12)N1CCC2(CC1)OCCO2,3.96
10,CCCCN(C)C(=O)C1CCN(Cc2cccnc2)CC1,9.71
11,O=C1CCN(c2ncccc2[N+](=O)[O-])CC1,0.312
12,Cc1ccc2c(c1)N(CC(=O)NC1CCCCC1C)C(=O)CO2 (centres unmarked),-0.706
13,N#Cc1ccc(N2CCc3ccccc3C2)c([N+](=O)[O-])c1,-5.95
14,COc1cccc(-c2nc(CS(=O)(=O)CC(=O)Nc3ccccc3Br)c(C)o2)c1,7.31
15,NC(=O)Cn1cnc(-c2ccccc2)c1,9.58
16,CN(CCNC(=O)C1(O)c2ccccc2NC(=O)N1c1ccccc1)Cc1ccccc1 (centres unmarked),-9.92
17,Cc1ccc2c(c1)C(=O)CC1(CCCCCC1)O2,17.6
18,CCC(=O)N(Cc1cc(=O)[nH]c2ccccc12)c1ccc(C)cc1C,-15.1
19,Cc1cc(NC(=O)Cn2nc(C(F)(F)F)c3c2CCC3)n(-c2ccccc2)n1,-17.3

row,Structure (SMILES),"hERG current change (%, negative = inhibition) at 10uM [%]"
1,CCCSc1nc2c(c(=O)[nH]c(=O)n2C)n1CCc1ccccc1,-8.5
2,CCCCOc1ccc(C2C(C(=O)c3ccc(C)o3)=C(O)C(=O)N2CC2CCCO2)cc1 (centres unmarked),9.79
3,Cc1cccc(NC(=S)NCc2ccccc2Cl)c1C,8.23
4,COc1ccccc1Nc1ncnc2c1c(C)c(C)n2CCCN(C)C,-16.4
5,CCN(CC)CCNC(=O)Cn1cnc2sc(C)c(S(=O)(=O)N3CCC(C)CC3)c2c1=O,8.72
6,O=C1CC2(CCN(C(=O)c3ccccc3Br)CC2)Oc2ccccc21,-76.9
7,CCc1c(C)nc2nc(SCc3ccccc3Cl)[nH]n2c1=O,19.5
8,CC(=O)C1=C(O)C(=O)N(c2ccc(S(=O)(=O)Nc3nccs3)cc2)C1c1ccc(F)cc1 (centres unmarked),22.8
9,Cc1cc(C)cc(-n2ncc3c2CCCC3NC(=O)CN2CCCCC2=O)c1 (centres unmarked),16.6
10,S=C(Nc1ccc(Cl)cc1)c1nc2ccccc2s1,7.77
11,O=C(NCc1ccc2c(c1)OCO2)c1ccc(NS(=O)(=O)c2ccc3c(c2)OCCO3)cc1,9.57
12,O=C(CCC(=O)Nc1ccc(F)cc1)N/N=C/c1ccncc1,8.6
13,COC(=O)c1nc2n(n1)C(c1ccc([N+](=O)[O-])cc1)C(C(=O)Nc1ccc(Cl)cc1)=C(C)N2 (centres unmarked),13.5
14,COC(=O)c1ccc(CSc2nc(-c3ccco3)cc(C(F)(F)F)n2)o1,-19.1
15,COc1ccc(N2CCN(C(=O)NCc3cccc(OC)c3)CC2)cc1,4.4
16,CC1CCCN(C(=O)c2cc3c(=O)n4ccccc4nc3s2)C1 (centres unmarked),2.91
17,O=C1C(=O)c2ccccc2C(O)=C1C1CCC(c2ccc(Cl)cc2)CC1 (centres unmarked),14.9
18,CCn1c(=O)cc(OCC(=O)O)c2ccccc21,10.6
19,C[C@@H](C(=O)O)[C@@H]1C[C@@]1(C)[C@@H](NC(=O)OCc1ccccc1)c1ccccc1,16.8

row,Structure (SMILES),"hERG current change (%, negative = inhibition) at 10uM [%]"
1,Cc1ccc(C2/C(=C(/O)c3cnn(-c4ccccc4)c3C)C(=O)C(=O)N2CCCN2CCOCC2)o1 (centres unmarked),1.43
2,CC(C)=CCC/C(C)=C/CC/C(C)=N/O,-14.7
3,COc1ccc(Cc2nnc(NC(=O)CS(=O)(=O)Cc3ccccc3)s2)cc1,19.9
4,CC(=O)N1CCc2cc(S(=O)(=O)NCCC(=O)Nc3cc(C)cc(C)c3)ccc21,2.19
5,COc1ccc(C(=O)Nc2ccc(N3CCN(Cc4ccccc4)CC3)cc2)cc1,-4.78
6,COc1cccc(C(=O)Nc2nnc(S(=O)(=O)N(C)Cc3ccc(F)cc3)s2)c1,12.1
7,Cc1cc(C)cc(C(=O)NCC(=O)OCC(=O)N2c3ccccc3NC(=O)C2(C)C)c1,-4.08
8,Cc1ccccc1C(=O)O/N=C/c1c(N2CCOCC2)n(C)c2ccccc12,1.1
9,O=C(CO/N=C/c1ccc(Cl)cc1Cl)NNC(=O)c1ccc(Cl)cc1Cl,3.17
10,Br.Nc1nc(-c2ccc(Br)cc2)cs1,-6.48
11,COc1ccccc1N1CCN(C2CCN(C(=O)c3ccc(F)cc3)CC2)CC1,-61
12,C#CCNC(=O)C1=C[C@H](C)[C@@H](CCCO)[C@H](OCC)O1,11.7
13,Cc1cc(Br)c2c(c1)/C(=C/C(=O)c1cccs1)C(=O)N2,17
14,CCOc1ccc(N(CC)S(=O)(=O)c2cccc3nsnc23)cc1,-1.57
15,CCCCN=C1CC(C)(C)CC(=O)/C1=C(/O)CCCN1C(=O)c2ccccc2C1=O,-61.4
16,Cc1ccc(Nc2cc(C)nc(-c3ccccc3O)n2)cc1,4.55
17,CC(C)(C)NS(=O)(=O)c1ccc(NS(C)(=O)=O)cc1,-10.8
18,CCCOc1cccc(NC(=O)c2cc(C)oc2C)c1,-2.06
